# ChEMBL document CHEMBL4304763 (Eur J Med Chem, 2019)
# How the values were obtained:
# CDK4/Cyclin D3 = CDK4/Cyclin D3 (Homo sapiens, UniProt P11802)
# CDK6/cyclin D3 = CDK6/cyclin D3 (Homo sapiens, UniProt Q00534)
# MCF7 [1] = format: functional, Homo sapiens; conditions: at 50 mg/kg
# CDK7/Cyclin H/MNAT1 = CDK7/Cyclin H/MNAT1 (Homo sapiens, UniProt P50613)
# [2] = molecular target: Epidermal growth factor receptor (Homo sapiens, UniProt P00533)
# [3] = molecular target: Platelet-derived growth factor receptor alpha (Homo sapiens, UniProt P16234)
# [4] = molecular target: Platelet-derived growth factor receptor beta (Homo sapiens, UniProt P09619)
# [5] = molecular target: Proto-oncogene tyrosine-protein kinase Src (Homo sapiens, UniProt P12931)
# [6] = molecular target: Tyrosine-protein kinase JAK1 (Homo sapiens, UniProt P23458)
# [7] = molecular target: Tyrosine-protein kinase JAK2 (Homo sapiens, UniProt O60674)
# [8] = molecular target: Vascular endothelial growth factor receptor 2 (Homo sapiens, UniProt P35968)
# [9] = molecular target: Mitogen-activated protein kinase 8 (Homo sapiens, UniProt P45983)
# Aurora kinase A = Aurora kinase A (Homo sapiens, UniProt O14965)
# Aurora kinase B = Aurora kinase B (Homo sapiens, UniProt Q96GD4)
# [10] = molecular target: Mitogen-activated protein kinase 9 (Homo sapiens, UniProt P45984)
# [11] = molecular target: Mitogen-activated protein kinase 10 (Homo sapiens, UniProt P53779)
# [12] = molecular target: RAF proto-oncogene serine/threonine-protein kinase (Homo sapiens, UniProt P04049)
# [13] = molecular target: Serine/threonine-protein kinase B-raf (Homo sapiens, UniProt P15056)
# [14] = molecular target: Serine/threonine-protein kinase pim-2 (Homo sapiens, UniProt Q9P1W9)
# [15] = molecular target: High affinity nerve growth factor receptor (Homo sapiens, UniProt P04629)
# [16] = molecular target: Mitogen-activated protein kinase 3 (Homo sapiens, UniProt P27361)
# [17] = molecular target: RAC-alpha serine/threonine-protein kinase (Homo sapiens, UniProt P31749)
# [18] = molecular target: MAP kinase-activated protein kinase 2 (Homo sapiens, UniProt P49137)
# [19] = molecular target: Fibroblast growth factor receptor 1 (Homo sapiens, UniProt P11362)
# [20] = molecular target: 5'-AMP-activated protein kinase catalytic subunit alpha-1 (Homo sapiens, UniProt Q13131)
# [21] = molecular target: Serine/threonine-protein kinase Chk1 (Homo sapiens, UniProt O14757)
# [22] = molecular target: Serine/threonine-protein kinase Chk2 (Homo sapiens, UniProt O96017)
# [23] = molecular target: Voltage-gated inwardly rectifying potassium channel KCNH2 (Homo sapiens, UniProt Q12809)
# MCF7 [24] = conditions: Homo sapiens
# MCF7 [25] = test: cells; conditions: Homo sapiens
# T47D = test: cells; conditions: Homo sapiens
# ZR-75-1 = test: cells; conditions: Homo sapiens
# A549 [26] = test: cells; conditions: Homo sapiens
# U-87 MG = test: cells; conditions: Homo sapiens
# U-251 = test: cells; conditions: Homo sapiens
# K562 = test: cells; conditions: Homo sapiens
# HepG2 = test: cells; conditions: Homo sapiens
# SNU-5 = test: cells; conditions: Homo sapiens
# NCI-N87 = test: cells; conditions: Homo sapiens
# NCI-H1975 = test: cells; conditions: Homo sapiens
# NCI-H1993 = test: cells; conditions: Homo sapiens
# NCI-H358 = test: cells; conditions: Homo sapiens
# NCI-H441 = test: cells; conditions: Homo sapiens
# CFPAC-1 = test: cells; conditions: Homo sapiens
# PANC-1 = test: cells; conditions: Homo sapiens
# BXPC-3 = test: cells; conditions: Homo sapiens
# LNCaP = test: cells; conditions: Homo sapiens
# PC-3 = test: cells; conditions: Homo sapiens
# in vivo [27] = conditions: BALB/c, mouse, iv, 3 mg/kg
# in vivo [28] = conditions: BALB/c, mouse, iv, 3 mg/kg; remark: listed apart in the source
# in vivo [29] = conditions: BALB/c, mouse, iv, 3 mg/kg; remark: listed apart in the source
# in vivo [30] = conditions: BALB/c, mouse, iv, 3 mg/kg; remark: listed apart in the source
# in vivo [31] = conditions: BALB/c, mouse, iv, 3 mg/kg; remark: listed apart in the source
# in vivo [32] = conditions: BALB/c, mouse, po, 10 mg/kg
# in vivo [33] = conditions: BALB/c, mouse, po, 10 mg/kg; remark: listed apart in the source
# in vivo [34] = conditions: BALB/c, mouse, po, 10 mg/kg; remark: listed apart in the source
# in vivo [35] = conditions: BALB/c, mouse, po, 10 mg/kg; remark: listed apart in the source
# in vivo [36] = conditions: Sprague-Dawley, rat, iv, 3 mg/kg
# in vivo [37] = conditions: Sprague-Dawley, rat, iv, 3 mg/kg; remark: listed apart in the source
# in vivo [38] = conditions: Sprague-Dawley, rat, iv, 3 mg/kg; remark: listed apart in the source
# in vivo [39] = conditions: Sprague-Dawley, rat, iv, 3 mg/kg; remark: listed apart in the source
# in vivo [40] = conditions: Sprague-Dawley, rat, iv, 3 mg/kg; remark: listed apart in the source
# in vivo [41] = conditions: Sprague-Dawley, rat, po, 6 mg/kg
# in vivo [42] = conditions: Sprague-Dawley, rat, po, 6 mg/kg; remark: listed apart in the source
# in vivo [43] = conditions: Sprague-Dawley, rat, po, 6 mg/kg; remark: listed apart in the source
# in vivo [44] = conditions: Sprague-Dawley, rat, po, 6 mg/kg; remark: listed apart in the source
# in vitro [45] = conditions: human, microsomes
# in vitro [46] = conditions: mouse, microsomes
# in vitro [47] = conditions: rat, microsomes
# in vitro [48] = conditions: dog, microsomes
# in vitro [49] = conditions: rhesus monkey, microsomes
# in vitro [50] = conditions: human, microsomes; remark: listed apart in the source
# in vitro [51] = conditions: mouse, microsomes; remark: listed apart in the source
# in vitro [52] = conditions: rat, microsomes; remark: listed apart in the source
# in vitro [53] = conditions: dog, microsomes; remark: listed apart in the source
# in vitro [54] = conditions: rhesus monkey, microsomes; remark: listed apart in the source
# CYP1A2 = CYP1A2 (Homo sapiens, UniProt P05177); test: in vitro; conditions: microsomes
# CYP2C9 = CYP2C9 (Homo sapiens, UniProt P11712); test: in vitro; conditions: microsomes
# CYP2C19 = CYP2C19 (Homo sapiens, UniProt P33261); test: in vitro; conditions: microsomes
# CYP2D6 = CYP2D6 (Homo sapiens, UniProt P10635); test: in vitro; conditions: microsomes
# CYP3A4 = CYP3A4 (Homo sapiens, UniProt P08684); test: in vitro; conditions: microsomes
# MCF7 [55] = test: animal or person; conditions: Mus musculus, MCF7, po, 456 h, read-out: TGI
# MCF7 [56] = test: animal or person; conditions: Mus musculus, MCF7, po, 456 h, read-out: TGI; remark: listed apart in the source
# MCF7 [57] = test: animal or person; conditions: Mus musculus, MCF7, po, 456 h, read-out: TGI; remark: listed apart in the source
# COLO 205 [58] = test: animal or person; conditions: Mus musculus, COLO 205, po, 312 h, read-out: TGI
# A549 [59] = test: animal or person; conditions: Mus musculus, A549, po, 480 h, read-out: TGI
# COLO 205 [60] = test: cells; conditions: Homo sapiens
smiles,measurement,setting,value
Cc1nc2c(F)cc(-c3nc(Nc4ccc5c(n4)CCN(CCN(C)C)C5)ncc3F)cc2n1C(C)C,IC50,CDK4/Cyclin D3,0.00071 µM
same,IC50,CDK6/cyclin D3,0.0011 µM
same,T/C,MCF7 [1],10%
same,IC50,CDK7/Cyclin H/MNAT1,1.22 µM
same,IC50,[2],1.97 µM
same,IC50,[3],0.97 µM
same,IC50,[4],0.392 µM
same,IC50,[5],1.05 µM
same,IC50,[6],0.787 µM
same,IC50,[7],0.17 µM
same,IC50,[8],3.93 µM
same,IC50,[9],4.17 µM
same,IC50,Aurora kinase A,> 30 µM
same,IC50,Aurora kinase B,8.58 µM
same,IC50,[10],0.305 µM
same,IC50,[11],0.416 µM
same,IC50,[12],27.9 µM
same,IC50,[13],8.29 µM
same,IC50,[14],0.177 µM
same,IC50,[15],0.11 µM
same,IC50,[16],13.5 µM
same,IC50,[17],> 30 µM
same,IC50,[18],> 30 µM
same,IC50,[19],> 30 µM
same,IC50,[20],0.865 µM
same,IC50,[21],9.18 µM
same,IC50,[22],0.978 µM
same,IC50,[23],10 µM
same,TGI,MCF7 [24],Dose-dependent effect
same,IC50,MCF7 [25],0.00703 µM
same,IC50,T47D,0.00862 µM
same,IC50,ZR-75-1,0.0215 µM
same,IC50,A549 [26],0.0989 µM
same,IC50,U-87 MG,0.207 µM
same,IC50,U-251,0.135 µM
same,IC50,K562,0.299 µM
same,IC50,HepG2,0.0266 µM
same,IC50,SNU-5,0.257 µM
same,IC50,NCI-N87,0.422 µM
same,IC50,NCI-H1975,0.327 µM
same,IC50,NCI-H1993,0.761 µM
same,IC50,NCI-H358,0.0199 µM
same,IC50,NCI-H441,0.112 µM
same,IC50,CFPAC-1,0.239 µM
same,IC50,PANC-1,0.319 µM
same,IC50,BXPC-3,0.0362 µM
same,IC50,LNCaP,0.0226 µM
same,IC50,PC-3,1.36 µM
same,Cmax at 24 h,in vivo [27],2.42 µg/mL
same,AUC(0-t) at 24 h,in vivo [28],2.36 µg·h/mL
same,half-life at 24 h,in vivo [29],4.19 h
same,Vd at 24 h,in vivo [30],4.4 L/kg
same,clearance at 24 h,in vivo [31],1.28 L/h/kg
same,Cmax at 24 h,in vivo [32],0.775 µg/mL
same,AUC(0-t) at 24 h,in vivo [33],6.85 µg·h/mL
same,half-life at 24 h,in vivo [34],4.81 h
same,bioavailability at 24 h,in vivo [35],87%
same,Cmax at 24 h,in vivo [36],0.6 µg/mL
same,AUC(0-t) at 24 h,in vivo [37],1.43 µg·h/mL
same,half-life at 24 h,in vivo [38],3.95 h
same,Vd at 24 h,in vivo [39],10.7 L/kg
same,clearance at 24 h,in vivo [40],2.09 L/h/kg
same,Cmax at 24 h,in vivo [41],0.128 µg/mL
same,AUC(0-t) at 24 h,in vivo [42],1.4 µg·h/mL
same,half-life at 24 h,in vivo [43],4.52 h
same,bioavailability at 24 h,in vivo [44],49%
same,half-life at 1 h,in vitro [45],0.825 h
same,half-life at 1 h,in vitro [46],1.16 h
same,half-life at 1 h,in vitro [47],2.32 h
same,half-life at 1 h,in vitro [48],0.303 h
same,half-life at 1 h,in vitro [49],0.252 h
same,microsomal CLint at 1 h,in vitro [50],28 µL/min/mg
same,microsomal CLint at 1 h,in vitro [51],20 µL/min/mg
same,microsomal CLint at 1 h,in vitro [52],10 µL/min/mg
same,microsomal CLint at 1 h,in vitro [53],76 µL/min/mg
same,microsomal CLint at 1 h,in vitro [54],92 µL/min/mg
same,inhibition at […],CYP1A2,< 15%
same,inhibition at […],CYP2C9,< 15%
same,inhibition at […],CYP2C19,< 15%
same,inhibition at […],CYP2D6,< 15%
same,inhibition at […],CYP3A4,< 15%
same,inhibition in vivo at 50 mg/kg,MCF7 [55],117%
same,inhibition in vivo at 25 mg/kg,MCF7 [56],105%
same,inhibition in vivo at 10 mg/kg,MCF7 [57],79%
same,inhibition in vivo at 25 mg/kg,COLO 205 [58],111%
same,inhibition in vivo at 50 mg/kg,A549 [59],94%
Cc1nc2c(F)cc(-c3nc(Nc4ccc5c(n4)CCN(CCN(C)C)C5)ncc3F)cc2n1CC1CC1,IC50,MCF7 [25],0.0213 µM
same,IC50,T47D,0.0262 µM
same,IC50,ZR-75-1,0.0618 µM
same,IC50,COLO 205 [60],0.171 µM
same,IC50,A549 [26],0.0751 µM
CCC(CC)n1c(C)nc2c(F)cc(-c3nc(Nc4ccc5c(n4)CCN(CCN(C)C)C5)ncc3F)cc21,IC50,T47D,0.00826 µM
same,IC50,ZR-75-1,0.0136 µM
same,IC50,COLO 205 [60],0.068 µM
same,IC50,A549 [26],0.179 µM
